Among the data in PubChem BioAssay AID1745853 (National Center for Advancing Translational Sciences (NCATS), 2022) are activity change, negative = inhibition values, retold here.

The list shows a part of the results. Further columns of the screen follow, without active or inactive calls.

Holding throughout (assay): Primary Screen for Target Class Profiling of Small Molecule Inhibitors of Methyltransferases
Assay [1] concerns the target Glycine N-methyltransferase (Homo sapiens) (UniProt Q14749). The note with it: purified enzyme, MTase-Glo SAH luminescence; measured here: GNMT inhibition; at 40 µM; stronger effect = lower value. In outline: (§1)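 Each enzyme was assayed with SAM and its substrate. SAH formation detected by MTase-Glo luminescence; single-point 40 uM screen[…].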
Assay [2] has as its target Guanidinoacetate N-methyltransferase (Homo sapiens) (UniProt Q14353). The conditions noted are these: purified enzyme, MTase-Glo SAH luminescence; measured here: GAMT inhibition; at 40 µM; stronger effect = lower value. In outline: as §1
Assay [3] deals with Histamine N-methyltransferase (Homo sapiens) (UniProt P50135). The note with it: purified enzyme, MTase-Glo SAH luminescence; measured here: HNMT inhibition; at 40 µM; stronger effect = lower value. In outline:
as §1

The target in assay [4] is Nicotinamide N-methyltransferase (Homo sapiens) (UniProt P40261). The note with it: purified enzyme, MTase-Glo SAH luminescence; measured here: NNMT inhibition; at 40 µM; stronger effect = lower value. In outline: as §1
The target of assay [5] is Phenylethanolamine N-methyltransferase (Homo sapiens) (UniProt P11086). The note with it: purified enzyme, MTase-Glo SAH luminescence; measured here: PNMT inhibition; at 40 µM; stronger effect = lower value. Summed up:
as §1
% is scaled to controls: 0 for no effect and ±100 for the full control effect.

With `Cc1cc(C2CCCN2C(=O)c2ccc(F)c(F)c2)on1` (stereo not given), the activity change, negative = inhibition in assay [1] was 0.696%; in assay [2], -2%; in assay [3] it was 1.45%; in assay [4] it was -1.97%; in assay [5], 3.37%.
Taken in the same sequence, the figures for `COc1ccc(CN2C(=O)c3ccc(-c4ccco4)n3CC2(C)C(=O)NC2CCCC2)cc1` (stereo not given) were -10%, 0.445%, -1.01%, -9.35% and -3.39%.
Taken in the same sequence, the figures for `O=C(c1ccc(NS(=O)(=O)c2cccc3cccnc23)cc1)N1CCN(CC2CC2)CC1` were 2.26%, -5.89%, -2.67%, -18.4% and -9.29%.
Turning to `CC1(C(=O)NC2CCCCCCC2)Cn2c(ccc2-c2ccccc2)C(=O)N1Cc1ccc(F)cc1` (stereo not given), the activity change, negative = inhibition was -0.522% in assay [1]; 0% in assay [2]; 5.41% in assay [3]; -4.07% in assay [4]; 2.26% in assay [5].
For `COc1ccc(OC)c2c1cc1n2CC(C)(C(=O)NC2CCCCCC2)N(Cc2ccco2)C1=O` (stereo not given), in that order: 0.995%, 4.77%, 2.48%, -7.08% and 0.518%.
For `CNS(=O)(=O)c1ccc(Cl)c(-c2nnc(-c3ccccc3)o2)c1`, the activity change, negative = inhibition in assay [1] was -13.1%; in assay [2] it was 0.395%; in assay [3], 3.08%; in assay [4], -4.16%; in assay [5], 1.86%.
For `CN1CCCC1c1nc(C2CN(C(=O)c3ccsc3)C2)no1` (stereo not given), in that order: -9.87%, -15.9%, -4.56%, -16% and -9.26%.
For `Cc1ccccc1CN1C(=O)c2ccc(-c3ccco3)n2CC1(C)C(=O)NC1CCCC1` (stereo not given), in that order: -5.99%, 2.05%, 2.64%, -5.03% and -1.78%.
Regarding `O=c1c2ccccc2nc2n1CCC2O` (stereo not given), the activity change, negative = inhibition in assay [1] was 5.02%; in assay [2], 7.38%; in assay [3], 0.116%; in assay [4] it was -6.71%; in assay [5], 6.52%.
Turning to `OCCN1CCN(CCCN2c3ccccc3Sc3ccc(Cl)cc32)CC1`, the activity change, negative = inhibition is -3.93% in assay [1]; 8.09% in assay [2]; -4.03% in assay [3]; -23.4% in assay [4]; 2.63% in assay [5].
As for `COc1ccc(Cn2c(=O)c3ccccc3n3c(-c4ccc(F)cc4)nnc23)cc1`, the activity change, negative = inhibition in assay [1] was -3.79%; in assay [2] it was 0%; in assay [3] it was 1.28%; in assay [4], 1.25%; in assay [5], -2.17%.
For `CC(C)Cn1c(=O)c2ccccc2n2c(=O)n(CC(=O)NCc3ccccc3Cl)nc12`, in that order: -1.3%, -1.91%, 2.12%, -5.81% and -6.14%.
For `CC(C)C1c2cccn2CCN1C(=O)NC1CCCCC1` (stereo not given), in that order: 12.5%, 0%, 8.26%, 3.81% and 8.5%.
With `CC(C)(C)NCc1cc(Nc2ccnc3cc(Cl)ccc23)c2c(c1O)CCCC2`, the activity change, negative = inhibition in assay [1] was 3.4%; in assay [2], 5.79%; in assay [3] it was -0.32%; in assay [4], -10.4%; in assay [5] it was -2.03%.
For `CNC(=O)N1CCC(C2CCN(C(=O)c3cnccn3)C2)CC1` (stereo not given), in that order: -0.702%, 0.334%, 1.11%, 0.693% and 1.51%.
Taken in the same sequence, the figures for `Cc1occc1C(=O)N1CCC2(CCCN(CC3CCCCC3)C2=O)C1` (stereo not given) were -10.1%, -8.34%, -3.38%, -15.4% and 5.23%.
For `O=C(CCCn1ccc2cc(S(=O)(=O)N3CCCC3)ccc21)NCc1ccco1`, in that order: 3.77%, 0%, 3.76%, 2.68% and 3.2%.
`CC(C)(C)c1ccc2c(c1)CC[C@H]2NC(=O)Nc1cccc2[nH]ncc12`: the activity change, negative = inhibition in assay [1] is -1.97%; in assay [2], -19.3%; in assay [3] it was 5.7%; in assay [4], -38.4%; in assay [5] it was -6.29%.
Taken in the same sequence, the figures for `Cn1c2c(c3ccccc31)C(C(=O)NCc1ccc(F)cc1)N(CCC1=CCCCC1)C(=O)CS2` (stereo not given) were -7.11%, -1.75%, -2.34%, -4.83% and -3.6%.
For `O=C(NC1CCCCCC1)c1ccc(CN2C(=O)NC3(CCS(=O)(=O)CC3)C2=O)cc1`, in that order: -4.75%, -4.79%, -4.32%, -11.8% and -8.79%.
Turning to `O=C(O)CC[C@@H](C(=O)O)N1C(=O)c2ccccc2C1=O`, the activity change, negative = inhibition in assay [1] was -7.74%; in assay [2] it was 4.27%; in assay [3] it was 0.078%; in assay [4], -3.11%; in assay [5], 8.35%.
For `COc1ccc(CN(C)Cc2ccoc2)cc1OCC(O)CN1CCCCC1` (stereo not given), in that order: -1.53%, -1.21%, -21.3%, 1.68% and 3.06%.
For the compound `C=C1C(=O)OC2CC(C)C(CCC(C)=O)=CCC12` (stereo not given), the activity change, negative = inhibition in assay [1] was -3.72%; in assay [2], -3.84%; in assay [3] it was 3.76%; in assay [4] it was -15.5%; in assay [5] it was 2.05%.
Taken in the same sequence, the figures for `O=S(=O)(Nc1cccn2nc(C3CC3)nc12)c1cccnc1` were -48.6%, -46.5%, -8.85%, -22.1% and -31.4%.
Taken in the same sequence, the figures for `Cc1ccc(-c2[nH]ncc2CN2CC[C@@](C)(O)[C@H](N3CCCC3)C2)cc1` were -10.4%, -14%, -13.8%, -24.6% and -12.8%.
With `Cc1c(F)cc(C(=O)NC2CC2)cc1-c1c(F)cn2c(C(C)(C)C)nnc2c1F`, the activity change, negative = inhibition in assay [1] is -3.92%; in assay [2], -9.55%; in assay [3], 4.11%; in assay [4], -19.1%; in assay [5] it was -12.4%.
For `Cc1ccc(CNC(=O)Cn2nc3n(Cc4ccc(C)cc4)c(=O)c4ccccc4n3c2=O)cc1`, in that order: -1.17%, 1.53%, 4.35%, 1.86% and -1.08%.
For `CC(C)Cn1c(=O)c2ccccc2n2c(CCC(=O)N3CCN(c4ccccc4F)CC3)nnc12`, in that order: -14%, 0%, 5.67%, -33% and 1.15%.
For `Cc1ccc(N2C(=O)c3cc(-c4ccco4)nn3CC2(C)C(=O)NC2CCCCCC2)cc1` (stereo not given), in that order: -5.29%, 3.07%, -3.78%, -2.57% and -6.89%.
Take `CCN1CCN(C(=O)N[C@@H](C(=O)N[C@@H]2C(=O)N3[C@@H]2SC(C)(C)[C@@H]3C(=O)O)c2ccccc2)C(=O)C1=O`: the activity change, negative = inhibition in assay [1] is 1.4%; in assay [2] it was 4.05%; in assay [3], 11.9%; in assay [4], -7.39%; in assay [5] it was 6.15%.
Taken in the same sequence, the figures for `O=C(NCCc1c[nH]c2ccc(Cl)cc12)c1ccc(CN2C(=O)CCn3nccc32)cc1` were -20.2%, -9.36%, -5.33%, -15% and -26.2%.
Turning to `Clc1ccc(-c2cnc3n2C[C@H](CNC2CCCC2)OC3)cc1`, the activity change, negative = inhibition was -8.39% in assay [1]; -9.71% in assay [2]; -18.3% in assay [3]; -17.9% in assay [4]; -14.7% in assay [5].
For `CCn1ccc(C(=O)N2CC[C@H](c3nc(C)no3)[C@H](NC(=O)C3CC3)C2)n1`, in that order: -0.292%, -1.78%, -1.79%, -5.44% and -0.457%.
Taken in the same sequence, the figures for `CNC(=O)[C@H]1C[C@H](Oc2ccccc2)CN1S(=O)(=O)c1c(C)noc1C` were -2.09%, -4.9%, -0.48%, -9.51% and -0.903%.
Taken in the same sequence, the figures for `CCCCN1C(=O)c2cc(C(=O)N3CCN(c4cccc(OC)c4)CC3)nn2CC1(C)C(=O)NC1CCCC1` (stereo not given) were 2.6%, 0%, 6.58%, -4.35% and -1.67%.
`COCC1(CNC(=O)c2nc3ccccc3[nH]2)C[C@@H](O)[C@@H](O)C1` (stereo not given in full): the activity change, negative = inhibition in assay [1] is -0.508%; in assay [2], 0.73%; in assay [3] it was 1.2%; in assay [4], 0.409%; in assay [5], -0.217%.
Taken in the same sequence, the figures for `CCOC(=O)c1cc2n(n1)CC(C)(C(=O)NCc1ccc(F)cc1)N(CCc1ccc(OCC)cc1)C2=O` (stereo not given) were 0.22%, 0.044%, 3.82%, -8.57% and 2.72%.
In the case of `C[C@H]1[C@H](C)CC[C@]2(C(=O)O)CC[C@]3(C)C(=CCC4[C@@]5(C)C[C@@H](O)[C@H](O)C(C)(C)C5CC[C@]43C)[C@H]12` (stereo not given in full), the activity change, negative = inhibition is 0% in assay [1]; -0.951% in assay [2]; 0.673% in assay [3]; -16.3% in assay [4]; -0.313% in assay [5].
In the case of `Cc1ccc(NC(=O)Cn2c(=O)oc3cc(S(=O)(=O)N4CC(C)CC(C)C4)ccc32)c(Cl)c1` (stereo not given), the activity change, negative = inhibition in assay [1] turned out to be 9.15%; in assay [2] it was 2.38%; in assay [3] it was 12%; in assay [4] it was 6.8%; in assay [5], 7.64%.
